From PubChem BioAssay AID902 (National Center for Advancing Translational Sciences (NCATS), 2007)
Out of some 130,000 compounds screened, about 1,900 (1.5%) were called active. Inconclusive means that the source gave no clear call. Such entries were picked first, then a sample of the others. Calls come from the whole dose curve; as a rule, active = well fitted cell-killing curve with a large enough effect; inconclusive = small, poorly fitted or top-dose-only effect; inactive = no such curve, though single readings can be large or run the other way. Where the call is inconclusive, the potency comes from a doubtful curve fit.
% is set by controls: 0 for no effect and ±100 for the full control effect; potency is the fitted concentration of half-maximal effect; tags give direction and shape of the fitted curve.

Experiment: qHTS Screen for Compounds that Selectively Target Cancer Cells with p53 Mutations: Cytotoxicity of p53ts Cells at the Nonpermissive Temperature; note: nearly all actives have a fitted effect of over 55% in size
Conditions: H1299-p53A138V viability at 39C, ATP luminescence, 24 h; activity change, negative = cell killing: at 46.1 µM (top of the series)
In the case of `Cc1ccc(NC(=O)Nc2cccs2)c(C)c1`, the Potency is reported as inconclusive: 0.005 µM [cytotoxic, full curve, poor fit].
For `CN(CCCNC(=O)c1cc2c(=O)n(C)c3ccccc3c2s1)Cc1ccccc1`, the Potency was inconclusive: 15.8 µM [cytotoxic, single point].
For `COC(=O)c1c(NC(=O)/C=C/c2ccc(OC)cc2)sc2c1CCC2`, the Potency was inconclusive: 31.6 µM [cytotoxic, single point].
For `Cc1ccn2cc(C(=O)Nc3ccc4c(c3)OCCO4)nc2c1`, the Potency was active: 12.6 µM.
In the case of `O=C(Cn1c(=O)ccc2cc(S(=O)(=O)N3CCCC3)ccc21)Nc1ccc(Cl)cc1`, the Potency is reported as inconclusive: 39.8 µM [cytotoxic, partial curve, poor fit].
With `COc1ccc(-c2noc(CCC(=O)NCCCN3CCC(Cc4ccccc4)CC3)n2)cc1` the Potency was inconclusive: 20 µM [cytotoxic, partial curve].
For `COc1ccccc1NC(=O)c1oc2ccccc2c1NC(=O)Cc1cccs1`, the Potency was inconclusive: 15.8 µM [cytotoxic, single point].
For `O=C(CCc1ccccc1)NCc1ccc2c(c1)CCN2C(=O)c1ccccc1`, the Potency was inconclusive: 15.8 µM [cytotoxic, single point].
For `Cc1[nH]n(-c2ccccc2)c(=O)c1/C=N/c1ccccn1`, the Potency was inconclusive: 20 µM [cytotoxic, single point].
For `Cc1ccc(-c2nc3cc(NC(=O)Cc4ccc(Cl)cc4)ccc3o2)cc1`, the activity change, negative = cell killing was inconclusive: -35.3% [cytotoxic].
In the case of `O=C(Cn1c(=O)oc2cc(S(=O)(=O)N3CCCCCC3)ccc21)NC1CCCCC1`, the Potency is reported as “inactive”.
For `CSc1nc(N)nc(SCC(=O)C23CC4CC(CC(C4)C2)C3)c1C#N`, the Potency was “inactive”.
For `Cc1ccc(N(CC(O)Cn2c3ccccc3c3ccccc32)S(=O)(=O)c2ccc(F)cc2)cc1` (centres undefined), the Potency was inconclusive: 12.6 µM [cytotoxic, partial curve].
With `CCn1nc(C(=O)OCC(=O)c2cc(C)n(Cc3cccs3)c2C)c2ccccc2c1=O` the Potency was inconclusive: 12.6 µM [cytotoxic, partial curve].
With `CCOC(=O)c1ccc(OC(=O)c2cn(-c3ccc(C)cc3)c(=O)c3ccccc23)cc1` the Potency was “inactive”.
For `COc1ccc(CNCCC(c2ccc(C)cc2)c2ccco2)cc1` (centres undefined), the Potency was inconclusive: 15.8 µM [cytotoxic, single point].
For `CN1CCc2cccc3c2[C@H]1Cc1ccc(O)c(O)c1-3`, the Potency was active: 6.31 µM.
With `Nc1ccc2oc(-c3ccccc3Br)nc2c1` the Potency was active: 12.6 µM.
With `CCOc1ccc(NC(=O)c2ccccc2CO)cc1` the Potency was inconclusive: 15.8 µM [cytotoxic, partial curve].
With `Cc1ccccc1NC(=O)CSc1nc2ccc(NC(=O)CCc3ccccc3)cc2s1` the Potency was inconclusive: 0.251 µM [cytotoxic, full curve].
In the case of `CC(=O)N1CCN(c2ccc(NC(=O)c3ccc(C(C)(C)C)cc3)cc2)CC1`, the Potency is reported as inconclusive: 31.6 µM [cytotoxic, single point].
With `CCc1nnc(NC(=O)CSc2nc3c([nH]c4ccccc43)c(=O)n2-c2ccc(F)cc2)s1` the Potency was inconclusive: 31.6 µM [cytotoxic, single point].
In the case of `Cc1ccccc1OCC(=O)Nc1nnc(SCc2cc(=O)n3cc(Cl)ccc3n2)s1`, the Potency is reported as inconclusive: 0.199 µM [cytotoxic, full curve, poor fit].
In the case of `Cc1ccc(-n2nc(C)c(C(=O)NCCCN3CCN(c4cccc(Cl)c4)CC3)c2-n2cccc2)cc1`, the Potency is reported as inconclusive: 15.8 µM [cytotoxic, partial curve].
With `Cc1cc(NS(=O)(=O)c2cn(C)c(C)n2)ccc1Br` the Potency was “inactive”.
With `Cc1nc2cc(NCc3nc4ccccc4n3Cc3ccccc3)ccc2n1C` the Potency was active: 2 µM.
For `COc1ccccc1CCNC(=O)C(=O)NCC(c1cccnc1)N1CCN(c2ccccc2)CC1` (centres undefined), the Potency was “inactive”.
With `CCCN1CCN(CCCNC(=O)c2cc3c(s2)-c2ccccc2OC3)CC1` the Potency was inconclusive: 15.8 µM [cytotoxic, single point].
In the case of `N=C(C[C@@H](O)COc1ccccc1-c1ccccc1)N1CCCCC1`, the Potency is reported as inconclusive: 15.8 µM [cytotoxic, partial curve, poor fit].
In the case of `CN1CCN(C2=Cc3ccccc3Oc3ccc(Cl)cc32)CC1`, the Potency is reported as inconclusive: 31.6 µM [cytotoxic, partial curve, poor fit].
With `COc1ccc(-c2oc3ncn(CCN4CCOCC4)c(=N)c3c2-c2ccc(OC)cc2)cc1` the Potency was inconclusive: 20 µM [cytotoxic, single point].
For `O=C(NC1(C(F)(F)F)C(=O)Nc2c1c(=O)[nH]c(=O)n2-c1ccc(Cl)cc1)c1ccccc1F` (centres undefined), the Potency was “inactive”.
In the case of `CCc1ccc(-n2c(SCc3ccccc3Cl)nc3[nH]ncc3c2=O)cc1`, the Potency is reported as inconclusive: 15.8 µM [cytotoxic, single point].
In the case of `CN(C)c1ccc(-c2cc(NCc3ccccc3)ncn2)cc1`, the Potency is reported as inconclusive: 2.51 µM [cytotoxic, full curve].
With `COc1cccc(C(=O)NC2=NCCS2)c1` the Potency was inconclusive: 15.8 µM [cytotoxic, partial curve].
In the case of `CCCCS(=O)(=O)/C=C\C=C/S(=O)(=O)CCCC`, the Potency is reported as inconclusive: 25.1 µM [cytotoxic, single point].
For `O=C(Nc1cccc(Cl)c1)c1ccc2c(c1)CCN2S(=O)(=O)c1ccccc1`, the activity change, negative = cell killing was inconclusive: -31% [cytotoxic].
With `CCCCN(CC)C(=O)CSc1c2c(nc3ccc(Cl)cc13)CCCC2` the Potency was inconclusive: 15.8 µM [cytotoxic, single point].
For `COc1cc(C)cc2oc(=O)c(CC(=O)NCCc3ccc(Cl)cc3)c(C)c12`, the Potency was active: 12.6 µM.
For `COc1ccccc1CN1C(=O)CN(C2CCCCCC2)C(=O)C1c1ccc(F)cc1` (centres undefined), the Potency was inconclusive: 2.51 µM [cytotoxic, partial curve, poor fit].
For `Cc1ccc2nc(Nc3ccc(C)c(F)c3)c3nncn3c2c1`, the Potency was inconclusive: 31.6 µM [cytotoxic, single point].
With `Cc1cccc(OCC(=O)Nc2ccc(-c3nc4ccccc4o3)cc2)c1C` the Potency was inconclusive: 15.8 µM [cytotoxic, single point].
For `CCn1c(=N)n(CCOc2ccc(Br)cc2)c2ccccc21`, the Potency was active: 12.6 µM.
For `Cc1cccn2c(=O)c(C(=O)NCCc3ccccc3)cnc12`, the Potency was inconclusive: 12.6 µM [cytotoxic, partial curve].
With `COc1cccc(NC(=O)CSc2nccn2C2CCCC2)c1` the Potency was inconclusive: 31.6 µM [cytotoxic, single point].
With `CC(CNC(=O)c1nnc(Cc2ccc(F)cc2)o1)c1ccccc1` (centres undefined) the Potency was inconclusive: 31.6 µM [cytotoxic, single point].
With `COc1ccc(N2CCN(Cc3nc4c(c(=O)[nH]c(=O)n4C)n3CC(C)C)CC2)cc1` the Potency was “inactive”.
In the case of `CS(=O)(=O)Nc1cccc(-c2nc(N3CCOCC3)c3ccccc3n2)c1`, the Potency is reported as “inactive”.
For `COc1ccc(NC(=O)CSc2nnc(NC(=O)NC3CCCCC3)s2)cc1OC`, the Potency was active: 7.94 µM.
For `Cn1c(=O)oc2cc(S(=O)(=O)N3CCCC(C(=O)NCCc4ccccc4)C3)ccc21` (centres undefined), the Potency was “inactive”.
In the case of `CCC1SC(=NC(=O)c2ccc(Cl)c(Cl)c2)NC1=O` (centres undefined), the Potency is reported as active: 7.94 µM.
For `OCc1nc2ccccc2n1CCCOc1ccc(Br)cc1`, the Potency was inconclusive: 12.6 µM [cytotoxic, partial curve].
For `Cc1coc2cc3oc(=O)c(CC(=O)NCc4cccc(Cl)c4)c(C)c3cc12`, the Potency was inconclusive: 12.6 µM [cytotoxic, partial curve, poor fit].
For `Cc1ccc(C(=O)/C=C2\NCCNC2=O)cc1`, the Potency was inconclusive: 12.6 µM [cytotoxic, single point].
With `CCN(CC)C(=O)c1sc(NC(=O)c2ccc(OC)c([N+](=O)[O-])c2)c(C#N)c1C` the Potency was “inactive”.
For `COc1ccc(OC)c(-c2ccccc2/C=N/NS(=O)(=O)c2ccc(C)cc2)c1`, the activity change, negative = cell killing was inactive: -2.63% [at 9.22 µM].
For `Cc1sc(NC(=O)c2ccco2)nc1-c1ccc2c(c1)CC(C)N2C(=O)C1CC1` (centres undefined), the Potency was inconclusive: 15.8 µM [cytotoxic, single point].
For `Cc1csc(NC(=O)c2cc3c(s2)CCC3)n1`, the Potency was inconclusive: 3.98 µM [cytotoxic, full curve].
In the case of `COc1ccc(-c2nc(SCC(=O)Nc3ccc4c(c3)OCCO4)c(-c3ccc(F)cc3)[nH]2)cc1OC`, the Potency is reported as inconclusive: 12.6 µM [cytotoxic, single point].
With `CC1CCN(C(=O)c2ccc(-n3cnnn3)cc2)CC1` the Potency was “inactive”.
For `CCOc1ccc(C(=O)Nc2cccc(NC(=O)c3ccc(C(C)(C)C)cc3)c2)cc1Br`, the Potency was inconclusive: 10 µM [cytotoxic, partial curve].
For `Cc1ccc(-c2nc(-c3ccccc3)no2)c(Cl)c1`, the Potency was active: 7.94 µM.
In the case of `Cc1cc(C)cc(NS(=O)(=O)c2ccc3[nH]cc(C(=O)NC4CCCCC4)c(=O)c3c2)c1`, the Potency is reported as inconclusive: 15.8 µM [cytotoxic, single point].
For `S=C1NC=NC2N=CNC12` (centres undefined), the Potency was inconclusive: 5.01 µM [cytotoxic, full curve].
For `CCn1cc2c(n1)-c1c(oc(C(=O)Nc3cccc(C)c3C)c1C)CC2`, the Potency was “inactive”.
With `Cc1cc(C)cc(NC(=O)CSc2oc(-c3ccccc3)nc2S(=O)(=O)c2ccccc2)c1` the Potency was inconclusive: 12.6 µM [cytotoxic, single point].
With `Cc1cc2nc(-c3cccc(NC(=O)C(C)C)c3C)oc2cc1C` the Potency was active: 0.126 µM.
With `O=C(c1cc(-c2ccccc2O)on1)N1CCCCC1` the Potency was inconclusive: 12.6 µM [cytotoxic, partial curve].
In the case of `O=C(OC1CCOC1=O)c1ccc(-c2nc3ccccc3s2)s1` (centres undefined), the Potency is reported as inconclusive: 12.6 µM [cytotoxic, partial curve].
